Reference: PubChem BioAssay AID485281 (National Center for Advancing Translational Sciences (NCATS), 2010)
About 260 (0.074%) of roughly 350,000 compounds were called active. Inconclusive results, whose numbers are uncertain, are shown with a selection of clear calls. The call rests on the fitted dose curve; in most records, active means well fitted inhibition curve with a large enough effect; inconclusive means small, poorly fitted or top-dose-only effect; inactive means no such curve, though single readings can be large or run the other way. Potencies beside an inconclusive call are fits to weak or partial responses and may not hold up.
Further: nearly all actives have a fitted effect of over 20% in size.
Potency means the concentration at half of the fitted maximal effect; tags describe the fitted curve by direction and shape.

The compounds below were run against Ferritin light chain (Equus caballus) (UniProt P02791) (assay: qHTS Assay for Identification of Novel General Anesthetics). Conditions: apoferritin/1-aminoanthracene competitive binding, fluorescence; series mostly up to 77.5 µM.
Sequence of UniProt P02791 (P02791 whole entry, looked up): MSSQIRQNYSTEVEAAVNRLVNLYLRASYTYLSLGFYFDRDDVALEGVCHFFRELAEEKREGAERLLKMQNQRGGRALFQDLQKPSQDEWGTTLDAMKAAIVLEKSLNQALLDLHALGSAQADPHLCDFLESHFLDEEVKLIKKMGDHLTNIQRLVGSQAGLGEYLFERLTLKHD
Summary of the method: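 Read-out: endpoint 1-AMA fluorescence, excitation 380 nm and emission 535 nm, after compounds sit 10 min at room temperature with 10 uM horse-spleen apoferritin in 50% saturated 1-AMA/PBS. Values come from four-parameter Hill fits.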
In the case of `CCC(C)Sc1oc(-c2ccco2)nc1S(=O)(=O)c1ccc(C)cc1` (centres undefined), the Potency is reported as “inactive”.
For `COc1cc(/C=N/NC(=O)C(=O)/C=C2\NC(C)(C)Cc3ccccc32)ccc1O`, the Potency was inconclusive: 12.6 µM [inhibitor, partial curve].
`O=C(NC(c1cccnc1)C(F)(F)F)c1cc(COc2ccc3c(c2)CCCC3)on1` (centres undefined) was tested, and the Potency was inconclusive: 22.4 µM [inhibitor, partial curve].
In the case of `COc1ccc(/C=C/C(=O)Nc2sc(C)c(C)c2C(=O)O)cc1`, the Potency is reported as inconclusive: 28.2 µM [inhibitor, partial curve].
In the case of `CC(C)c1cnc2c(c1SCC(=O)N1CCCCC1)c(=O)n(C)c(=O)n2C`, the Potency is reported as “inactive”.
For `CC(C)CC(=O)N1CCN(Cc2ccc3c(c2)OCO3)CC1`, the Potency was “inactive”.
`COCCCn1c(Cc2csc(Nc3cccc(Cl)c3)n2)nnc1SCC(=O)OC` was tested, and the Potency was inconclusive: 56.2 µM [inhibitor, single point].
In the case of `CCOCC(=O)OCC(=O)NC12CC3CC(CC(C3)C1)C2`, the Potency is reported as inconclusive: 12.6 µM [inhibitor, partial curve].
For `CC(=O)Nc1ccc(SCC(=O)c2cc(C)n(Cc3cccs3)c2C)cc1`, the Potency was inconclusive: 12.6 µM [inhibitor, partial curve].
In the case of `CC(C)(C)OC(=O)N1CCC(c2c(C(=O)O)cnn2-c2ccc(Cl)cc2)CC1`, the Potency is reported as inconclusive: 39.8 µM [inhibitor, single point].
`Cc1ccccc1NC(=O)c1ccc(CSc2ncccn2)cc1` was tested, and the Potency was inconclusive: 22.4 µM [inhibitor, partial curve].
With `Cc1noc(/C=C/N(C)C)c1S(=O)(=O)NC1CCCCC1` the Potency was inconclusive: 17.8 µM [inhibitor, partial curve].
In the case of `COc1ccccc1OCCCC(=O)Nc1ccc([N+](=O)[O-])cc1Br`, the Potency is reported as inconclusive: 25.1 µM [inhibitor, partial curve].
In the case of `COc1cc(NC(=O)Nc2cccc3cccnc23)cc(OC)c1OC`, the Potency is reported as inconclusive: 20 µM [inhibitor, partial curve].
With `CC(C)(C)NCC(O)COc1ccccc1C(C)(C)C` (centres undefined) the Potency was “inactive”.
For `COc1ccc(S(=O)(=O)N2CCc3cc(OC)c(OC)cc3C2)cc1`, the Potency was “inactive”.
For `CCCOc1ccc(Cc2c(O)nc(SC)[nH]c2=O)cc1C`, the Potency was inconclusive: 0.708 µM [inhibitor, full curve, poor fit].
In the case of `CCc1ccc(C(=O)COC(=O)CNC(=O)c2ccco2)cc1`, the Potency is reported as inconclusive: 31.6 µM [inhibitor, single point].
In the case of `O=C(COC(=O)c1cccc(NC(=O)c2ccco2)c1)c1ccc(Br)cc1`, the Potency is reported as inconclusive: 11.2 µM [inhibitor, partial curve].
`O=S(=O)(/N=C(/Sc1ccccc1)c1ccccc1)c1ccccc1` was tested, and the Potency was inconclusive: 50.1 µM [inhibitor, single point].
With `CSc1ccc(CNc2ccccn2)cc1` the Potency was inconclusive: 28.2 µM [inhibitor, partial curve].
With `COc1ccccc1CNS(=O)(=O)c1cccs1` the Potency was inconclusive: 28.2 µM [inhibitor, partial curve].
For `CC(C)(C)CC(=O)NCc1ccc(F)cc1`, the Potency was inconclusive: 22.4 µM [inhibitor, partial curve].
`O=C(COC(=O)c1ccc(Cl)s1)c1ccc[nH]1` was tested, and the Potency was inconclusive: 35.5 µM [inhibitor, single point].
With `CNC(=S)Nc1ccc(Nc2ccccc2)cc1` the Potency was inconclusive: 28.2 µM [inhibitor, partial curve].
`Cc1ccc(O)c(CNc2cccc(C)n2)c1` was tested, and the Potency was inconclusive: 25.1 µM [inhibitor, partial curve].
With `O=C(CSc1nc2ccccc2c(=O)n1Cc1ccco1)c1ccc(F)cc1` the Potency was inconclusive: 22.4 µM [inhibitor, partial curve].
In the case of `COCc1c(C(=O)OCC(=O)c2c(N)n(CC(C)C)c(=O)n(C)c2=O)oc2ccccc12`, the Potency is reported as inconclusive: 15.8 µM [inhibitor, partial curve].
For `C#CCOc1ccc(/C=C2/C(=O)N(c3cccc(C(=O)O)c3)N=C2C)cc1OC`, the Potency was “inactive”.
With `COc1ccc(Cn2nc(-c3ccccc3)c(N3CCCCC3)cc2=O)cc1` the Potency was inconclusive: 22.4 µM [inhibitor, partial curve].
In the case of `Cc1cccc(CS(=O)(=O)Cc2ccc(C(=O)NCc3cccnc3)o2)c1`, the Potency is reported as “inactive”.
For `CCOc1cc(CNCCc2ccc(S(N)(=O)=O)cc2)cc(Cl)c1OCc1ccccc1`, the Potency was “inactive”.
For `Cc1ccc(OCC(=O)c2cc(C)c(C)cc2C)c([N+](=O)[O-])n1`, the Potency was inconclusive: 31.6 µM [inhibitor, partial curve].
In the case of `Cc1[nH]n(-c2ccccc2)c(=O)c1C=Nc1ccc2[nH]c(=O)[nH]c2c1`, the Potency is reported as “inactive”.
With `Cc1ccc(C(=O)Nc2ccc3c(c2)C(=O)N(CC2CCCO2)C3=O)cc1` (centres undefined) the Potency was “inactive”.
For `CC1CC(NS(=O)(=O)c2cccs2)CC(C)(C)C1` (centres undefined), the Potency was inconclusive: 4.47 µM [inhibitor, full curve, poor fit].
With `Cc1ccc(C(=O)NCCNc2ncc(C(F)(F)F)cc2Cl)cc1[N+](=O)[O-]` the Potency was inconclusive: 35.5 µM [inhibitor, single point].
`COc1ccc(CNC(=O)c2ccc(NC(=O)CC3SC(N4CCCCC4)=NC3=O)cc2)cc1` (centres undefined) was tested, and the Potency was inconclusive: 31.6 µM [inhibitor, partial curve].
With `COC(=O)c1ccc(C23CC2(C(NP(=O)(c2ccccc2)c2ccccc2)c2ccccc2)C3)cc1` (centres undefined) the Potency was inconclusive: 31.6 µM [inhibitor, partial curve].
`O=C(COC(=O)CNC(=O)c1ccccc1)Nc1nc(-c2ccccc2)cs1` was tested, and the Potency was inconclusive: 17.8 µM [inhibitor, partial curve].
For `CC1C(=O)Nc2ccc(S(=O)(=O)N3CCN(c4cccc(Cl)c4)CC3)cc2NC1=O` (centres undefined), the Potency was inconclusive: 22.4 µM [inhibitor, partial curve].
With `Cc1ccccc1OCC(=O)NC1CCCCCCC1` the Potency was inconclusive: 44.7 µM [inhibitor, partial curve].
In the case of `C=CCN1C(c2cccc(C(F)(F)F)c2)=CS/C1=C(/C#N)c1nnc(N2CCOCC2)n1-c1ccccc1`, the Potency is reported as inconclusive: 35.5 µM [inhibitor, partial curve].
In the case of `Cc1cccc(Oc2cc(N)cc([N+](=O)[O-])c2)c1`, the Potency is reported as inconclusive: 3.55 µM [inhibitor, full curve].
For `CCOC(=O)C1=C(CNC(C)(C)CC(C)(C)C)NC(=O)NC1c1cccc([N+](=O)[O-])c1` (centres undefined), the Potency was inconclusive: 12.6 µM [inhibitor, partial curve].
For `Nn1c(SCC(=O)N2CCCCCC2)nnc1-c1ccncc1`, the Potency was “inactive”.
With `O=C(NCCCN1CCOCC1)c1cc(-c2cccs2)on1` the Potency was “inactive”.
`CN(C)c1ccc(N=Cc2ccco2)cc1` was tested, and the Potency was inconclusive: 39.8 µM [inhibitor, partial curve, poor fit].
For `COc1ccc2c(c1)/C(=N/OC(=O)c1cccs1)CCC2`, the Potency was inconclusive: 28.2 µM [inhibitor, partial curve].
In the case of `CC1CCCc2sc3nc(NCc4ccco4)n4ncnc4c3c21` (centres undefined), the Potency is reported as inconclusive: 25.1 µM [inhibitor, partial curve].
For `COc1ccc(OC)c(CNC(=O)Cn2nc(C)c3nn(-c4ccc(Cl)cc4)c(C)c3c2=O)c1`, the Potency was “inactive”.
`COC(=O)CSc1snnc1-c1ccc(Cl)cc1Cl` was tested, and the Potency was inconclusive: 28.2 µM [inhibitor, partial curve].
With `O=C1CSC(c2cccs2)N1c1ccccc1` (centres undefined) the Potency was inconclusive: 22.4 µM [inhibitor, partial curve].
For `Cc1ccccc1NC(=O)c1cccc(S(=O)(=O)Nc2cccc(C(=O)O)c2)c1`, the Potency was “inactive”.
In the case of `COc1ccc(Cl)cc1Nc1nc(C)cc(=O)[nH]1`, the Potency is reported as “inactive”.
For `Cc1ccsc1/C=N/Nc1nc(=O)[nH]nc1C`, the Potency was “inactive”.
`O=C(Cc1ccccc1)NCCn1ccc2ccccc21` was tested, and the Potency was “inactive”.
For `O=C(NCC(c1ccc2c(c1)OCO2)N1CCOCC1)C(=O)Nc1ccc(F)cc1F` (centres undefined), the Potency was inconclusive: 11.2 µM [inhibitor, single point].
With `O=S(=O)(NCCc1ccccc1)c1cccs1` the Potency was inconclusive: 20 µM [inhibitor, partial curve].
With `CCNC(=S)NNC(=O)c1cc(-c2cccc(C)c2)nc2ccccc12` the Potency was inconclusive: 50.1 µM [inhibitor, partial curve].
`O=C(CNC(=O)c1ccc(Cl)cc1)N/N=C/C=C/c1ccccc1` was tested, and the Potency was inconclusive: 2.82 µM [inhibitor, full curve, poor fit].
`COc1cc(S(=O)(=O)NCCc2ccc3c(c2)OCO3)ccc1-n1cnnn1` was tested, and the Potency was inconclusive: 14.1 µM [inhibitor, partial curve].
With `Cc1cc(C(=O)NC2CCCN(Cc3ccc(Cl)cc3)C2)c(C)o1` (centres undefined) the Potency was “inactive”.
With `CCc1ccc(C(=O)NC(=S)Nc2ccc3c(c2)OCCO3)cc1` the Potency was “inactive”.
With `C=CCn1cc(CN2CCC(C(=O)Nc3ccc(Oc4cccnc4)cc3)CC2)c(C)n1` the Potency was inconclusive: 22.4 µM [inhibitor, partial curve].
For `COc1ccc(OCC(O)COc2ccc(OC)cc2)cc1`, the Potency was inconclusive: 28.2 µM [inhibitor, partial curve].
In the case of `Cc1ccccc1-n1c(C)cc(/C=N/Nc2ccc([N+](=O)[O-])cn2)c1C`, the Potency is reported as inconclusive: 31.6 µM [inhibitor, partial curve].
For `CC(C)(C)c1ccc(S(=O)(=O)c2cn(CC(=O)Nc3ccccc3)c3ccccc3c2=O)cc1`, the Potency was inconclusive: 10 µM [inhibitor, partial curve].
For `O=C(COC(=O)c1cc([N+](=O)[O-])ccc1NCCO)c1ccc(Cl)cc1`, the Potency was inconclusive: 39.8 µM [inhibitor, partial curve].
